Assay results as given in the supplement of paper PMC3334620.
The full ranking holds about 33,000 sequences; the median of “E-score (-0.5 to 0.5)” is about -0.056, and the highest 2% start at about 0.38. This is one part of the list.

Molecular target: Stb4 (UniProt P50104)
Assay: PBM E-score (8-mer binding enrichment) (E-score (-0.5 to 0.5)); higher = stronger / more preferred TF binding; most listed sequences are background and not binding sites
Settings: protein concentration: 200 nM; construct: GST-DNA-binding domain
In short: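 For each ungapped eight-base word taken together with its reverse complement, the Universal PBM Analysis Suite assigned an E-score. Binding data came from GST-tagged yeast transcription factors, applied at about 100-200 nM, on universal all-10-mer Agilent arrays made double-stranded by primer extension. Fluorescent anti-GST marked bound protein, and scans were normalised with masliner.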

| Sequence | PBM E-score |
| --- | --- |
| ACTAGCAT | 0.00907 |
| ACATATTC | -0.0459 |
| CAGACGGA | 0.158 |
| AAACCTGT | -0.059 |
| AAGGCATG | -0.161 |
| AGGCGTAA | -0.0799 |
| CGCATACC | 0.151 |
| CTAATAAG | -0.259 |
| ACCTGCAT | -0.0524 |
| ATCCTCAT | -0.249 |
| AGGCAGTC | -0.144 |
| GGTCCGCA | 0.00474 |
| CCTTCTCC | -0.147 |
| CCAACGTC | -0.0459 |
| AACGAAGC | -0.0698 |
| CGACACGA | 0.0172 |
| CTCAATTA | -0.147 |
| AACTTGCG | -0.0122 |
| ATCAGACA | -0.168 |
| CTAGTTAC | 0.0747 |
| GTACATTA | -0.0356 |
| AAGGATTA | -0.0254 |
| AGGTTGAC | -0.0815 |
| AAAGTTTC | -0.0988 |
| CAGGTGAG | -0.365 |

| Sequence | PBM E-score |
| --- | --- |
| GGCAATGA | -0.0484 |
| GAGTCGCA | -0.21 |
| CTGACTTC | 0.159 |
| GGCCCCAC | -0.0643 |
| CACGCTGG | -0.173 |
| CAAGTACA | -0.144 |
| CATCAGGG | -0.224 |
| AGCAACCG | 0.162 |
| CCGATCCA | 0.238 |
| AATCGGCC | 0.191 |
| GGTGATTA | 0.121 |
| AACGGGCT | -0.0614 |
| ACCCTCCA | -0.203 |
| CACCGAAA | 0.201 |
| ACCAATTG | -0.292 |
| ATCTGCGG | 0.123 |
| CTCACAGC | -0.293 |
| AGAACCGG | 0.295 |
| ATCCCCAG | -0.332 |
| ACGCCTCC | -0.0077 |
| AAATCCTA | -0.0873 |
| ACTGAAGA | -0.0104 |
| AGGGGGAG | -0.198 |
| AGCCGTTG | 0.113 |
| CCCGGCGC | 0.251 |

| Sequence | PBM E-score |
| --- | --- |
| CCGTTGCC | 0.127 |
| ATCTGAAT | -0.0562 |
| AGAGATTA | -0.139 |
| ACCCGACG | 0.425 |
| GCGCCTAA | -0.116 |
| ACTAACCA | 0.0413 |
| CATAGGAG | -0.154 |
| ATACCTTA | 0.0329 |
| TAAGGCAA | -0.017 |
| AGTGTTAG | -0.0902 |
| TCAGGCCA | -0.0603 |
| CCACGGCA | 0.219 |
| AGTCATTG | -0.205 |
| ACAGGGAG | -0.197 |
| GGCTGTCA | -0.169 |
| CCGAACTC | 0.374 |
| AGTGCAGG | -0.142 |
| AGATACCA | -0.0484 |
| CCATGTAA | 0.0562 |
| AGCGGAAA | 0.333 |
| ACTCTCAT | -0.15 |
| ACAATTTA | -0.142 |
| AACGCACG | -0.0119 |
| TCACACAA | -0.195 |
| GAATCTGA | -0.0575 |

| Sequence | PBM E-score |
| --- | --- |
| CTCCAGGC | -0.205 |
| CTTGCGGC | 0.0761 |
| AATCCCGG | 0.318 |
| GGCAGCAA | 0.00856 |
| GCGAACGA | -0.125 |
| CTTCTGCA | -0.0971 |
| ATGCGACA | -0.121 |
| ACACCCTC | 0.00446 |
| GGCCGGCC | 0.199 |
| CATGGTGG | -0.107 |
| GCAGACCC | -0.0129 |
| CGTATTCC | 0.153 |
| AATCTTAC | 0.00018 |
| AGTCCATA | -0.142 |
| CGGCAGCC | 0.286 |
| GATCCGAC | 0.434 |
| ACTCGGCT | 0.414 |
| AGTCTTAC | -0.245 |
| ACGTCCGA | 0.201 |
| AGCTTGCA | -0.254 |
| AAGTTTGA | 0.0739 |
| CACGAGCC | 0 |
| AATCGTGT | 0.0447 |
| AAGATGTC | -0.197 |
| AAGCACAT | 0.00432 |

| Sequence | PBM E-score |
| --- | --- |
| CTTTCCAA | 0.125 |
| AACTCGGA | 0.426 |
| AGACGTCA | -0.282 |
| CAGTATTA | -0.0582 |
| ACGAGAAT | -0.0391 |
| CGCACTAG | -0.0812 |
| CTATCCCC | -0.0734 |
| AATTGACC | -0.0708 |
| CAGGACGA | -0.172 |
| AGGTTCCC | -0.0987 |
| CGCTCTAG | -0.153 |
| AAACTGCA | -0.0605 |
| AAGTAGGG | -0.195 |
| CAACCTAC | 0.0693 |
| AGGGCCGG | 0.191 |
| AACTGGGC | -0.0105 |
| AACTTTTC | -0.0488 |
| GGGACGCA | -0.161 |
| AACATCCC | 0.232 |
| AGTAACCA | -0.169 |
| AACCACTC | -0.17 |
| AAGCATCT | -0.0907 |
| CGAGCGAC | -0.0207 |
| CCCTATCA | -0.211 |
| ACAATTGT | 0.0503 |

| Sequence | PBM E-score |
| --- | --- |
| ACCTATGA | -0.164 |
| ACCGGAAG | 0.388 |
| AGAGCTAT | -0.288 |
| GTCTACAC | -0.0696 |
| CATCCCTA | -0.133 |
| CCTACTGC | -0.132 |
| AACTAACA | -0.0147 |
| GTCAGTAA | -0.177 |
| AATATCCG | 0.452 |
| ATTAGCCA | -0.26 |
| CCGGGGAC | 0.157 |
| GTCTATCA | -0.0168 |
| ACATGATA | 0.00881 |
| ACAGGAAA | 0.101 |
| ACCTCGAA | -0.105 |
| CCCCTCAA | -0.131 |
| AAGGTGTG | -0.059 |
| GGGCTTAC | 0.0623 |
| ACAGGGCT | -0.41 |
| GTACCCCA | -0.0156 |
| CTACGTCC | 0.106 |
| ACATTACC | 0.131 |
| ATTTAAGA | -0.159 |
| ACGTAGCC | 0.0222 |
| CCCGTGGC | 0.101 |

| Sequence | PBM E-score |
| --- | --- |
| AATCCAAA | -0.0619 |
| GCCACCTA | -0.125 |
| GTGCAGCA | -0.0895 |
| CATGGGCA | -0.103 |
| AATTCACG | 0.0309 |
| GCTGTTCA | -0.106 |
| ACAGAATA | 0.036 |
| GAATACAC | -0.0318 |
| TAGGACAA | -0.255 |
| GCAAGTGA | -0.0836 |
| AGGTTACA | -0.181 |
| GAGTACAA | 0.081 |
| ATAGTGAA | -0.127 |
| CCCGAGCA | 0.405 |
| CGGACAAC | 0.198 |
| CCAAGTGC | -0.0592 |
| GACCCGGA | 0.323 |
| GACATGGC | -0.14 |
| CATACCCG | 0.348 |
| ACACGCCC | 0.0932 |
| GGAATCAA | 0.224 |
| ACCTACAC | -0.343 |
